Results taken from PubChem BioAssay AID504333 (National Center for Advancing Translational Sciences (NCATS), 2011).
Screen size: about 360,000 compounds; about 16,000 (4.4%) were called active. The shares of active, inactive and inconclusive entries below differ from those in the screen. The call rests on the fitted dose curve; in most records, active means well fitted inhibition curve with a large enough effect; inconclusive means small, poorly fitted or top-dose-only effect; inactive means no such curve, though single readings can be large or run the other way. Potencies beside an inconclusive call are fits to weak or partial responses and may not hold up.

biological target: Bromodomain adjacent to zinc finger domain protein 2B (Homo sapiens) (UniProt Q9UIF8); assay: qHTS Assay for Inhibitors of BAZ2B; conditions: AlphaScreen BAZ2B-H3K14Ac peptide displacement; activity change, negative = inhibition: at 114 µM (top of the series); further: nearly all actives have a fitted effect of over 60% in size
Procedure, shortened: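 Protein-peptide AlphaScreen: BAZ2B 50 nM, b-H3K14Ac 50 nM, 1x PBS pH 7.4 + 0.01% Tween-20. Preincubation 30 min RT; cpd 30 min RT (top 110 uM); beads 20 min RT, light-protected.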
On the % scale 0 is the no-effect control and ±100 the full control effect; potency means the concentration at half of the fitted maximal effect; tags describe the fitted curve by direction and shape.

Chain of UniProt Q9UIF8 (Q9UIF8 whole entry, looked up, the tested form may be a part): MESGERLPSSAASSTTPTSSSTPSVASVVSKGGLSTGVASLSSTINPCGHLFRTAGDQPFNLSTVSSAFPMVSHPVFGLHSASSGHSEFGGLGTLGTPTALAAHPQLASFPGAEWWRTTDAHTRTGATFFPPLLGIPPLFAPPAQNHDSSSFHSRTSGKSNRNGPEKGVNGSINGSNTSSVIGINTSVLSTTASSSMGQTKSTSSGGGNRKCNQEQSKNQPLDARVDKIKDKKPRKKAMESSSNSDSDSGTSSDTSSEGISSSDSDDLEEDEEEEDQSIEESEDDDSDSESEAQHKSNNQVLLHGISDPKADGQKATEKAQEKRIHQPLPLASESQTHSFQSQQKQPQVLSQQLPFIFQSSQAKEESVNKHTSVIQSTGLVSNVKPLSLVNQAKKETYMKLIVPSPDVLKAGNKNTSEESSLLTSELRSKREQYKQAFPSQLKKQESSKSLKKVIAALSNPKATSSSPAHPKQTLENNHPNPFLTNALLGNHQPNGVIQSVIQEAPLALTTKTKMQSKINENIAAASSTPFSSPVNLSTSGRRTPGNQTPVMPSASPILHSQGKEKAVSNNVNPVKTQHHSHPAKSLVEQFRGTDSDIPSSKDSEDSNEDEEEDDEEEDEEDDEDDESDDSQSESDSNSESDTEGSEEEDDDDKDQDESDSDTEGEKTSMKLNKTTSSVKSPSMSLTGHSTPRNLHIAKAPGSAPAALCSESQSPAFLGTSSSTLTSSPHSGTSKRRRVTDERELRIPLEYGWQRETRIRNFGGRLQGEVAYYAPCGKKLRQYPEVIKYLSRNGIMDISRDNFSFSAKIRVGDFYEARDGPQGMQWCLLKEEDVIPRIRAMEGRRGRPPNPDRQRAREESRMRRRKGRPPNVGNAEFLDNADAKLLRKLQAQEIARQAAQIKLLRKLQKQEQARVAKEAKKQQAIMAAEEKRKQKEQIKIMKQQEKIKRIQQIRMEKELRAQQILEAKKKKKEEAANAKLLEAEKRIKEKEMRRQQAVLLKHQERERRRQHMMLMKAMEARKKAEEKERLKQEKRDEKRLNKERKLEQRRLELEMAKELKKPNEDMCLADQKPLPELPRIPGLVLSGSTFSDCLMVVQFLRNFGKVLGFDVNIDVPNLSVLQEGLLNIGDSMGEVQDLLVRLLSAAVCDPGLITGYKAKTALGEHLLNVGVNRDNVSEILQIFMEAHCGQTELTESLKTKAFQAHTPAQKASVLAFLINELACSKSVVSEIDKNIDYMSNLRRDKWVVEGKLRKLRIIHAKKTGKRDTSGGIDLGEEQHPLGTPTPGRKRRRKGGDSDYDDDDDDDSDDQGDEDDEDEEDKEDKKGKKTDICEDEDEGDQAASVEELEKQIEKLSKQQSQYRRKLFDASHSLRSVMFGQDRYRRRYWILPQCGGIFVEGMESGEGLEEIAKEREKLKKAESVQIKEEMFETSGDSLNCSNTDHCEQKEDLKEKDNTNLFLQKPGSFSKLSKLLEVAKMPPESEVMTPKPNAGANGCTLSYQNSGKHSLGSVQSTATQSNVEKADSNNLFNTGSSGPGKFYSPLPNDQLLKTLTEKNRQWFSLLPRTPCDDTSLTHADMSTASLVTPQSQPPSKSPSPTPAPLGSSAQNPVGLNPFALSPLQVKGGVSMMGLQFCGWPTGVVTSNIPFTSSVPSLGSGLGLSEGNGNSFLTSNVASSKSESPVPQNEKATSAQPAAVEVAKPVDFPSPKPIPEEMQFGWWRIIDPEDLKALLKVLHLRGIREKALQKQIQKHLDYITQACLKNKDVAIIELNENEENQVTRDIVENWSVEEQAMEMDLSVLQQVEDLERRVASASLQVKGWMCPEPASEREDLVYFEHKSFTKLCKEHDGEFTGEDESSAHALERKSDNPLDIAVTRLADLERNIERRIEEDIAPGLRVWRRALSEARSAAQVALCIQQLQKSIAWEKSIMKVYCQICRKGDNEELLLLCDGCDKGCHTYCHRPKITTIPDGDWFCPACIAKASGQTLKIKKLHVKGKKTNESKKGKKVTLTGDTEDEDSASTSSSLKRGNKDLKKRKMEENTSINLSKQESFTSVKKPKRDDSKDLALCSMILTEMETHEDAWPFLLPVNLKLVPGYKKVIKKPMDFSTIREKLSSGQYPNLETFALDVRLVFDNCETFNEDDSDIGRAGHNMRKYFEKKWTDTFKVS

| Compound | Potency | activity change, negative = inhibition |
| --- | --- | --- |
| COc1ccc(OCc2nc(C#N)c(NCCCn3ccnc3)o2)cc1 | inconclusive: 89.1 µM [inhibitor, single point] | – |
| Cc1occc1-c1nnc(-c2cc([N+](=O)[O-])cc([N+](=O)[O-])c2)o1 | inconclusive: 89.1 µM [inhibitor, single point] | – |
| CCN1CCc2c(C#N)c(N3CCOCC3)nc(NCc3ccccc3)c2C1 | inconclusive: 89.1 µM [inhibitor, single point] | – |
| CCc1ccc(-c2cc3c(N4CCN(c5ccccc5)CC4)nccn3n2)cc1 | inconclusive: 2.51 µM [inhibitor, full curve] | – |
| O=C(/C=C/c1ccc([N+](=O)[O-])s1)N1CCCC1 | inconclusive: 79.4 µM [inhibitor, single point] | – |
| CCOC(=O)Cc1csc(-n2sc3ccccc3c2=O)n1 | active: 5.01 µM | – |
| CCCc1cc(NC(=O)COC(=O)c2nccnc2N)n(-c2ccccc2)n1 | inactive | – |
| COc1ccc(Br)cc1CNC(=O)c1ccc2c(c1)nc1n2CCCCC1 | inactive | – |
| CCOC(=O)CNc1c(-c2ccccc2)nc2ccc(Cl)cn12 | inconclusive: 44.7 µM [inhibitor, partial curve] | – |
| CC1=C(C(=O)OC2CCC(C)CC2)C(c2ccc(O)c([N+](=O)[O-])c2)NC(=O)N1 (configuration not stated) | inconclusive: 50.1 µM [inhibitor, partial curve] | – |
| CC(C)CC(=O)Nc1c(C(=O)N2CCN(c3ccccc3F)CC2)oc2ccccc12 | inconclusive: 79.4 µM [inhibitor, single point] | – |
| CCOC(=O)c1c(CSc2ccsc2)n(C)c2cc(Br)c(O)c(CN(C)C)c12 | inconclusive: 44.7 µM [inhibitor, partial curve] | – |
| CC(C(=O)Nc1ccccc1C(F)(F)F)n1nc(-c2ccccc2)c2c(c1=O)CCCC2 (configuration not stated) | inactive | – |
| O=C1c2ccccc2C(=O)N1CC(O)COCc1ccccc1 (configuration not stated) | inactive | – |
| Cc1cccc(N2CCN(c3ccc(C(=O)O)cc3NC(=O)c3ccccc3F)CC2C)c1 (configuration not stated) | active: 56.2 µM | – |
| O=C(Nc1nc(-c2ccco2)c(-c2ccco2)s1)c1c(F)cccc1Cl | active: 39.8 µM | – |
| COc1ccc(CSc2nc3ccccc3[nH]2)cc1 | inactive | – |
| COC1=C(Nc2ccc(C)cc2)C(=O)c2ccccc2C1=O | active: 7.94 µM | – |
| O=C(C[n+]1cc(-c2ccc(F)cc2)n2c1CCC2)Nc1nc(-c2ccc(F)cc2)cs1 | inactive | – |
| CC1CCCN(S(=O)(=O)c2ccc(-c3ccc(=O)[nH]n3)o2)C1 (configuration not stated) | inconclusive: 79.4 µM [inhibitor, single point] | – |
| O=C(O)c1cccc(Nc2nc(-c3cccnc3)nc3ccccc23)c1 | inconclusive: 89.1 µM [inhibitor, single point] | – |
| O=C(CCS(=O)(=O)c1ccc(Br)cc1)Nc1ccc(Br)cc1F | active: 50.1 µM | – |
| O=C1C(C=NCc2ccccn2)=C(O)c2ccccc21 | active: 89.1 µM | – |
| O=C1c2[nH]nc(-c3ccccc3O)c2C(c2ccc(F)cc2)N1Cc1ccco1 (configuration not stated) | inconclusive: 70.8 µM [inhibitor, single point] | – |

| Compound | Potency | activity change, negative = inhibition |
| --- | --- | --- |
| COc1ccc(-c2csc(N(Cc3ccco3)C(=O)c3cccs3)n2)cc1 | inconclusive: 79.4 µM [inhibitor, single point] | – |
| COc1ccc(Cl)cc1NC(=O)CN(C)CC(=O)NCc1cccs1 | inactive | – |
| O=C(NC(=S)Nc1ccccc1)c1cc(-c2ccccc2)nc2ccccc12 | inconclusive: 79.4 µM [inhibitor, single point] | – |
| COCCCNC(=S)N/N=C/c1ccc(O)cc1O | active: 6.31 µM | – |
| CCNC(=S)N1CCc2cc(OC)c(OC)cc2C1COc1ccc(OC)cc1 (configuration not stated) | inconclusive: 50.1 µM [inhibitor, partial curve, poor fit] | – |
| Cc1ccc(NC(=O)CN2C(=O)S/C(=C\c3cc(Cl)c(OCC(=O)O)c(Cl)c3)C2=O)cc1 | active: 39.8 µM | – |
| Cc1nn(Cc2ccccc2)c(C)c1C(=O)OCC(=O)c1cc(C)n(C2CC2)c1C | inconclusive: 79.4 µM [inhibitor, single point] | – |
| CCOC(=O)C1=C(C)NC(C)=C(C(=O)OCC)C1C(=O)OCC(N)=O | inactive | – |
| Cc1cccc(C(=O)OCC(=O)N2CC(C)OC(C)C2)c1C (configuration not stated) | inactive | – |
| O=C(O)CCN1c2ccccc2Sc2ccccc21 | inconclusive: 79.4 µM [inhibitor, single point] | – |
| O=C(Nc1nnc(SCc2ccc(F)cc2)s1)c1ccccn1 | active: 25.1 µM | – |
| O=C(O)c1csc(-c2ccc(Cl)cc2)n1 | inconclusive: 89.1 µM [inhibitor, single point] | – |
| CCN1C(=O)[C@H]2[C@@H](c3ccc(-c4ccccc4)cc3)N3CCC[C@@]3(C(=O)OC)[C@H]2C1=O | inconclusive: 20 µM [inhibitor, single point] | – |
| O=C(CN(Cc1ccccc1Cl)C(=O)c1csnn1)NCc1ccc2c(c1)OCO2 | inconclusive: 3.98 µM [inhibitor, single point] | – |
| CN(NC(=O)c1ccccc1)c1ncc(C(F)(F)F)cc1Cl | inactive | – |
| CC(C)(C)c1ccc(Oc2ccc(N)cn2)cc1 | inconclusive: 70.8 µM [inhibitor, single point] | – |
| O=S(=O)(c1ccc(Br)cc1)c1nnn2c1nc(NCc1cccs1)c1sccc12 | inconclusive: 56.2 µM [inhibitor, partial curve] | – |
| O=C(OCC(=O)N1CCCCCC1)c1ccc(F)cc1F | inactive | – |
| COc1ccc(C(c2nnnn2Cc2ccccc2)N2CCN(C(=O)c3ccco3)CC2)cc1OC (configuration not stated) | inconclusive: 79.4 µM [inhibitor, single point] | – |
| COc1ccc(CN2CCN(C(=O)c3cc(OC)c(OC)c(OC)c3)CC2)cc1OC | inconclusive: 79.4 µM [inhibitor, single point] | – |
| CCN1C(=S)SC(=O)C1=C1C=C(C)N(Cc2ccco2)C(C)=C1 | – | inconclusive: -74.2% [inhibitor] |
| O=C1c2sc3nc4n(c(=O)c3c2CCC1Br)CCCCC4 (configuration not stated) | active: 50.1 µM | – |
| Cc1ccccc1OCc1nc(-c2ccc(Br)o2)no1 | inconclusive: 89.1 µM [inhibitor, single point] | – |
| CC(=O)Nc1ccc(NC(=O)C2CCN(C(=O)NC3CCCCC3)CC2)cc1 | inactive | – |

| Compound | Potency | activity change, negative = inhibition |
| --- | --- | --- |
| Cc1cc(C)c(C(=O)Nc2ccccc2)c(SCC(=O)Nc2ccc(Br)cc2C)n1 | inactive | – |
| Cc1ncc(CO)c2c1Oc1nc(-c3ccccc3)nc(SCC(=O)N(C)c3ccccc3)c1C2 | inconclusive: 79.4 µM [inhibitor, single point] | – |
| Brc1ccccc1Cn1c(-c2cscn2)nc2ccccc21 | inactive | – |
| CN(C)c1ccc(C(c2nnnn2CCOC(=O)Nc2ccc(Cl)cc2)N2CCOCC2)cc1 (configuration not stated) | active: 44.7 µM | – |
| Cc1ccc(-c2nn(-c3ccccc3)cc2C2SCC(=O)N2Cc2ccccc2)o1 (configuration not stated) | inconclusive: 39.8 µM [inhibitor, full curve] | – |
| C[C@H](NC(=O)c1nc[nH]c1C(=O)N[C@@H](CCCCN)C(=O)OC(C)(C)C)C(=O)OC(C)(C)C | inconclusive: 89.1 µM [inhibitor, single point] | – |
| Cc1c(Cl)cccc1NC(=O)CN1C(=O)CCn2nc(-c3cccn3C)cc21 | inconclusive: 50.1 µM [inhibitor, partial curve] | – |
| COCCN(CCOC)C(=O)c1cc2c(=O)n3ccccc3nc2n1C | inconclusive: 79.4 µM [inhibitor, single point] | – |
| Cc1ccc(S(=O)(=O)Nc2c(C)nn(C)c2C)cc1 | inactive | – |
| Cc1ccc2cc(C(c3nnnn3C3CCCC3)N3CCN(c4ccccc4)CC3)c(=O)[nH]c2c1 (configuration not stated) | inconclusive: 79.4 µM [inhibitor, single point] | – |
| COc1ccc(OC)c(NC(=O)CC2SC(=Nc3ccc(F)cc3)N(CCC3=CCCCC3)C2=O)c1 (configuration not stated) | inconclusive: 79.4 µM [inhibitor, single point] | – |
| COc1ccc(NC(=O)CSc2nnc(-c3ccccn3)n2Cc2ccco2)cc1OC | inconclusive: 89.1 µM [inhibitor, single point] | – |
| CC(C)Oc1ccc(CNC(=O)CCCn2c(=O)c3cccn3c3cccnc32)cc1 | inconclusive: 79.4 µM [inhibitor, single point] | – |
| Cc1cc(C)c(OCC(=O)OCCNC(=O)c2cccnc2)c(C)c1 | inconclusive: 89.1 µM [inhibitor, single point] | – |
| Clc1ccc(OCc2nn3c(-c4ccco4)nnc3s2)cc1 | inconclusive: 50.1 µM [inhibitor, partial curve] | – |
| COc1ccc2c(c1)sc1nc(=O)ccn12 | inactive | – |
| Cc1ccc(NC(=O)CNc2ccc(OC(C)C)cc2)cc1 | active: 50.1 µM | – |
| CN=C1S/C(=C/c2cn(CC(=O)OC)c3ccccc23)C(=O)N1C | inconclusive: 89.1 µM [inhibitor, partial curve] | – |
| Cc1oc(-c2ccc(Cl)cc2)nc1CSCC(=O)NCCCN1CCOCC1 | inconclusive: 89.1 µM [inhibitor, single point] | – |
| Oc1cccc(Nc2ncnc3sc4c(c23)CCCC4)c1 | inactive | – |
| OCCCc1cn(Cc2ccccc2)c2ccccc12 | inconclusive: 89.1 µM [inhibitor, single point] | – |
| COc1ccc(OCc2cc(C(=O)N3CCCC(OC)C3)no2)c2ccccc12 (configuration not stated) | inconclusive: 50.1 µM [inhibitor, partial curve] | – |
| O=C(CSc1nc2ccccc2c(=O)[nH]1)Nc1ccc(N2CCOCC2)cc1 | inactive | – |
| Fc1ccc(F)c(C2=NNC(=NCC3CCCO3)SC2)c1 (configuration not stated) | inconclusive: 44.7 µM [inhibitor, partial curve] | – |
